The record followed here is article PMC4336329 (PLoS ONE, 2015).

In all, about 310,000 compounds went through this assay and about 14,000 (4.5%) showed an effect of 50% or more. Effects have a minus sign here. This is one part of the list.
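Also: peak tail current of the secondary pulse compared with the same well before compound.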

The target of this experiment is human ether-à-go-go-related gene (hERG) potassium channel (human, UniProt Q12809). Briefly: primary screen, population patch clamp on CHO cells stably expressing hERG.
human ether-à-go-go-related gene (hERG) potassium channel, sequence (Q12809 whole entry, looked up): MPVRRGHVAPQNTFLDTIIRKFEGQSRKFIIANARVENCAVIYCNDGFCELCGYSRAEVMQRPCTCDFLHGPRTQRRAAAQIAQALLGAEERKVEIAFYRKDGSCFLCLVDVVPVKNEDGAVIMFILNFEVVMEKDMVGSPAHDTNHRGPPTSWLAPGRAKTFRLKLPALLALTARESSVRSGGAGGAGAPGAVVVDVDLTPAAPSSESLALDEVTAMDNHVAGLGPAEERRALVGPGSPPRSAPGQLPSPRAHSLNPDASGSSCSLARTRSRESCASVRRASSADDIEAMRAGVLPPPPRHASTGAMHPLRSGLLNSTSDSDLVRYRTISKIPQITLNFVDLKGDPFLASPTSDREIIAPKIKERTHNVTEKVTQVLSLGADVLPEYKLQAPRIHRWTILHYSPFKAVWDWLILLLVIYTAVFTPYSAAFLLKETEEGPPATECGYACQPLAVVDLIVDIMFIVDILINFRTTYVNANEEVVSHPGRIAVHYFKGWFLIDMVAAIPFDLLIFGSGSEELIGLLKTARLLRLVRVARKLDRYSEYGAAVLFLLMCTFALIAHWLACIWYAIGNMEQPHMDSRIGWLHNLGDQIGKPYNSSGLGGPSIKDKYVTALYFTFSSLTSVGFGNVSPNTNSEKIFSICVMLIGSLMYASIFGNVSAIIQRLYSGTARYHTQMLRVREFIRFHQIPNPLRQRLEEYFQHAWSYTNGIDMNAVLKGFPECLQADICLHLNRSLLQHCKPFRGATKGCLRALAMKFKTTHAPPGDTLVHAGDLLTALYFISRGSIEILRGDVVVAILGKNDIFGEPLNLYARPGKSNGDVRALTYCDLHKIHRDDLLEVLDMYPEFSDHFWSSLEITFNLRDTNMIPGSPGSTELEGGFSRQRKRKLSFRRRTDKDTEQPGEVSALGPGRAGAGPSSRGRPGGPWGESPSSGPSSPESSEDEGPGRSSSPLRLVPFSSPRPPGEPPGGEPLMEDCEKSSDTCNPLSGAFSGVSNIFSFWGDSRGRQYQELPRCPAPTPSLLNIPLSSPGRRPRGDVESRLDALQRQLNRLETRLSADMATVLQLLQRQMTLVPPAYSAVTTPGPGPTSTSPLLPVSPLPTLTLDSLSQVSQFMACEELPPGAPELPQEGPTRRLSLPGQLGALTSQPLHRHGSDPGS
On to `COc1ccc(-n2c(C)nn(C)c2=O)cc1`, for which the “hERG current change (%, negative = inhibition) at 10uM” value was found to be 4.99%. Then `Cc1nc2cc(C(=O)N3c4ccccc4CC3C)ccc2s1` (centres unmarked), with -2.85%; and `Cc1cccc2cc(CN(C(=S)NCC(C)C)C3CCCC3)c(=O)[nH]c12`, with -6.39%; and `Fc1ccc(N2CN(Cc3cccnc3)CNC2=S)cc1`, with 10.7%.

With `COC(=O)C(C)(C)ONC(=O)Nc1ccccc1`, the “hERG current change (%, negative = inhibition) at 10uM” value stood at 1.66%. Take `CCOc1cc(NC(=S)NCc2ccco2)c(OCC)cc1NC(=O)c1ccco1`: the “hERG current change (%, negative = inhibition) at 10uM” value was -5.5%. Consider `CC(=O)NC1(c2cccc(F)c2)CCN(CC(=O)NC(C)C)CC1`, for which the “hERG current change (%, negative = inhibition) at 10uM” value is recorded as 9.55%.

Regarding `NC(=O)C1CC(=O)N(CCc2ccc(F)cc2)C1` (centres unmarked), the “hERG current change (%, negative = inhibition) at 10uM” value is listed as 22.6%. Then `CSc1ccccc1NC(=O)CSc1n[nH]c(N)n1`, with -2.03%; and `COc1cc(/C=C/c2nc3ccccc3c(=O)[nH]2)cc(OC)c1OC`, with 8.11%; and `CCOC(=O)NC(=O)CSc1nc2ccc([N+](=O)[O-])cc2[nH]1`, with 9.36%. To `COc1ccc(C)c2sc(=NC(=O)c3ccccc3)n(C)c12` belongs 27.7%; to `C/C(=N\NC(=O)c1nn(C)c(C)c1Br)c1ccc(NC(=O)C2CCCC2)cc1`, 13.8%; to `COc1ccc2c(Cl)c(C(=O)NCCCn3ccnc3)sc2c1`, -4.86%. For the compound `O=C(c1ccc(Cl)nc1)N1CCN(S(=O)(=O)c2ccc(Cl)cc2)CC1`, the “hERG current change (%, negative = inhibition) at 10uM” value is -17.3%. To `CCCN1CCN(C(=O)CCn2c(=O)c3cccn3c3cccnc32)CC1` belongs -19.5%; to `COc1ccccc1NC(=O)CN1C(=O)COc2ccc(C)cc21`, 3.39%; to `CCc1[nH]nc(C(=O)N/N=C/c2ccncc2)c1C`, -43.9%. Regarding `CC(NCC(=O)Nc1cc(S(=O)(=O)N2CCOCC2)ccc1Cl)c1ccc(Cl)cc1Cl` (centres unmarked), the “hERG current change (%, negative = inhibition) at 10uM” value is on record as 4.67%. Then `Cc1cc(NC(=O)CN2C(=O)S/C(=C\c3ccccc3)C2=O)no1`, with -3.93%. On to `Cc1ccccc1OCC(=O)Nc1cnn(CCCC(=O)O)c1`, for which the “hERG current change (%, negative = inhibition) at 10uM” value amounted to 16.6%.

On to `O=C(NNC(=O)c1cc(Br)ccc1Cl)c1csc(N2CCOCC2)n1`, for which the “hERG current change (%, negative = inhibition) at 10uM” value came to 4.26%.

As for `CCOc1ccc(C2/C(=C(\O)c3ccc4c(c3)OCCO4)C(=O)C(=O)N2Cc2cccnc2)cc1OCC` (centres unmarked), the “hERG current change (%, negative = inhibition) at 10uM” value was found to be 16.9%.

Turning to `CC(=O)Nc1ccc(C(=O)Nc2cccc(S(=O)(=O)NC3=NCCC3)c2)cc1`, the “hERG current change (%, negative = inhibition) at 10uM” value is 4.95%.

For the compound `COc1cccc(CNC(=O)CCNS(=O)(=O)c2ccc3[nH]c(=O)oc3c2)c1`, the “hERG current change (%, negative = inhibition) at 10uM” value is on record as 12.3%. To `COc1ccc(OC)c(N(C(=O)c2ccco2)C(C(=O)NC2CCCC2)c2ccc(N3CCOCC3)cc2)c1` (centres unmarked) belongs -6.21%. To `O=C1CC(N2CCC(c3nc4ccccc4o3)CC2)C(=O)N1c1cc(Cl)cc(Cl)c1` (centres unmarked) belongs -15.4%. To `Cn1c(SCC(=O)N/N=C/C=C/c2ccco2)nc2ccccc21` belongs -42.9%; to `CSCC[C@H](NC(=O)OC(C)(C)C)C(=O)N1CCC(C(=O)NCC(=O)Nc2ccc(C)cc2)CC1`, 1.48%; to `O=C(c1cc(-c2ccc(O)cc2)on1)N1CCCc2ccccc21`, -29.5%. Consider `C/C(=N/OCO/N=C(\C)c1ccccc1)c1ccccc1`, for which the “hERG current change (%, negative = inhibition) at 10uM” value is 2.27%. Then `O=S(=O)(O)c1ccc(SCc2ccccc2)nc1`, with 13.5%; and `Cc1nc(NC2=NCN(CCCN3CCOCC3)CN2)nc2c(C)cccc12`, with 2.1%.

As for `O=C(Nc1cccc(S(=O)(=O)N2CCCC2)c1)c1cccc(S(=O)(=O)N2CCOCC2)c1`, the “hERG current change (%, negative = inhibition) at 10uM” value is recorded as -15.5%. Then `Cc1cccc(NC(=S)NC(=O)c2oc3ccccc3c2C)n1`, with 24.1%; and `COc1cc(/C=C2\SC(=S)N(CCC(=O)Nc3ccccn3)C2=O)cc(OC)c1OC`, with 8.6%; and `COc1cc(/C=N/NC(=O)c2ccc(N)cc2)ccc1OC(=O)c1cccc(C)c1`, with 6.14%. Then `O=C(NCc1ccco1)c1ccc2[nH]c(=O)c(=O)[nH]c2c1`, with 8.58%; and `Cc1cc(C)cc(-n2nnc(C(=O)NCc3ccc4c(c3)OCO4)c2N)c1`, with -8.45%; and `Cc1ccc(N2CCN(C(=O)c3ccccc3NC(=O)c3ccccc3C(=O)O)CC2)cc1`, with -2.27%. Consider `O=C(O)Cn1cc(C(=S)N2CCCCC2)c2ccccc21`, for which the “hERG current change (%, negative = inhibition) at 10uM” value is 35%. For the compound `COc1ccc(C)cc1NC(=O)COC(=O)c1c(C)nn(-c2ccccc2)c1C`, the “hERG current change (%, negative = inhibition) at 10uM” value was -3.03%. Consider `C=CCc1cc(C)ccc1OCC(O)CN1CCN(c2ccccc2)CC1` (centres unmarked), for which the “hERG current change (%, negative = inhibition) at 10uM” value is on record as -47.5%. To `O=[N+]([O-])c1ccc2c(c1)nc1n2CCN(c2ccccc2)C1` belongs -26.1%.
